# The list shows a part of the results.
# Test system: PfSIP2 AP2 domain 1 (GST-tagged)
# Test: gcPBM binding intensity (ln(normalized median fluorescence intensity)); higher = stronger DNA binding
# In short: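 GST-tagged P. falciparum DNA-binding domains, expressed in E. coli (about 25 μg on average), were applied for 1 h to an Agilent 4 × 180k array of primer-extended double-stranded 36-bp intergenic genomic probes plus negative controls. The binding buffer was 1× PBS with 1% milk, 0.2 mg/ml BSA, 0.5% salmon testes DNA and 0.03% Triton X-100. Bound protein was detected with Alexa488 anti-GST antibody and scanned at 488 nm. Binding intensity is the highest Masliner-normalised natural-log median intensity across replicate spots of either probe orientation.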
row,Sequence,gcPBM binding intensity (ln)
1,AGTAGTCTGGAGAAGAGTACATAGTATCTGATAACC [XGTACX_site2044],7.16
2,ATAAATAAATTTATACGTACACATAATATATATATA [XGTACX_site4634],8.89
3,ATTGAAAATTATTTACCTTCTTTGAAAGAACAAATG [CACACA_negctrl_site1736],6.75
4,AAAAATAAAATGATGGTGCACATAAAGTATGGTTAC,11.3
5,TAATTAATATATTTTTGTACTTATATATTTGCGTAT [XGTACX_site340],6.85
6,AATCCACAAAGACACACACACACATATATATATATA [CACACA_site1269],9.77
7,AAAATTCTTCGGGGGAGTACAAGGATATTCTACGTT [XGTACX_site3974],7.83
8,TTATAATATATATGTGGTACTTATTTATTTATTTAT [XGTACX_site7572],6.92
9,TTTTGTAATTTTGTATGTACACATTAAAGTAATATG [XGTACX_site2401],7.41
10,ATTTTTGATTTTAAAAGTACATAAGTATACTATTTA [XGTACX_site7162],7.04
11,TTTAAAAAAAATATGTGTACTTAATATTTTCATATA [XGTACX_site7421],6.78
12,TACATATAAATAATAACACACACCTAGGTACATGGA [CACACA_site838],6.89
13,CATACACAGAAACACACACACATATATATATATATA [CACACA_site4519],9.79
14,AGAAAGGAGGAAATAAAAGGACTTCTTTTTTTATAT [CACACA_negctrl_site810],6.69
15,ATTCATATCTACTTCACACACATTTGATCATTCAAA [CACACA_site7207],7.28
16,ATAGTATTTTTTATTACACACAAATAAAAAGAAAAA [CACACA_site2087],7.23
17,ATGAAACAGTAACATTGTACTTTTACAAAAAAATAA [XGTACX_site806],6.75
18,AAAATCTATATTAACACACACACAAAAAAAAAAAAA [CACACA_site6738],7
19,ATCTTTCGTACATGTACACACAGAAAAAAAAAAAAA [CACACA_site2502],7.31
20,GTTCCCATAAATAAATGTACATATTATATATATATA [XGTACX_site3242],8.94
21,GTGTAATCATATAAGGGTACAAAAAATGTCTAACAA [XGTACX_site8122],7.12
22,TTTCATTTCACAGACACACACACACCCTATATTTCC [CACACA_site3906],7.1
23,ATATATTTTATATAGTGTACTTTAATTTTTTTTTTT [XGTACX_site5550],6.83

row,Sequence,gcPBM binding intensity (ln)
1,ATTTTTTTTTTTTTTGAACACACATTATTAATTTTT [CACACA_site7990],6.89
2,ATAAATAAAACAAAATGTACAAATATTCATATATTC [XGTACX_site1307],6.87
3,ATATATATATATGTTAGTACTTATATTGAAATGGTA [XGTACX_site1406],9.45
4,TTATTTACCTATTATAGTACATATAATTAATATAAT [XGTACX_site5724],7.22
5,TTTCGAATTAAAGCATGTGAAAATTTTCAAAAAATA [XGTACX_negctrl_site577],6.93
6,GAATCACTAATTTTTTTACACACCACAATTTAATTT [CACACA_site8311],7.26
7,ACAAAACATAATTGTTGTACAAAAAGAATTATATAT [XGTACX_site8422],7.2
8,ATAATAATATAATATTCACACAATTGAAATAGTGTA [CACACA_site6083],6.84
9,AAATAAAAATTACAAGCATGCATTTTCCTATTTGCA [TGCATGCA_site861],6.43
10,GTGTAAAAATTAAAGTGTACACATATATATATATAT [XGTACX_site2251],9.87
11,AAAAAATTTTGAAATTGTACATATATAAAAAATATA [XGTACX_site2629],6.91
12,TTTAAATATATTAATACACACACGATATGTACAAAA [CACACA_site539],7.02
13,GAATAAATTGTATTGTGTACATATAAAAGCATCTAA [XGTACX_site8271],7.13
14,TATAAATATACAAAGGTGCATAAAAAGTTATGTTTT [GTGCAC_site9832],10.4
15,TTTCTATAATATTCTACACACCAACAACAAACATAT [CACACA_site6409],7.38
16,GGTCTTTTTATGATATGTACTTATATAATATTATAT [XGTACX_site6458],7.8
17,ATGTAGAAGTAATGCACACATATGTATATATATATA [CACACA_site2494],9.37
18,AACAGCATGAAGTAAAGTACTAGTTTTATTTATTTA [XGTACX_site1116],6.73
19,AGGAAATTTTTTTTTTTTTTTTTTTTTTTTTTTTAC [TGCATGCA_negctrl_site170],6.81
20,ATAATATATAATATAGTGCATTATTTATTAATTAAT [GTGCAC_site9852],10.1
21,TCCTAATGGTTTAATTGTACAAAAAAAAAAAATATA [XGTACX_site322],7.05
22,TGATAAGTATACTAAAGTACATGAAAAATAACTTCC [XGTACX_site6908],6.87

# From the supplement of paper PMC11417369
